PubChem BioAssay AID1347417 (National Center for Advancing Translational Sciences (NCATS), 2020)
Hit rate of the full screen: of about 120,000 compounds, about 5,300 (4.4%) were called active. The shares of active, inactive and inconclusive entries below differ from those in the screen. The call rests on the fitted dose curve; in most records, active means well fitted inhibition curve with a large enough effect; inconclusive means small, poorly fitted or top-dose-only effect; inactive means no such curve, though single readings can be large or run the other way. Where the call is inconclusive, the potency comes from a doubtful curve fit.

Assay: qHTS Primary assay for Inhibitors of Plasmodium falciparum Dd2 growth in vitro; further: nearly all actives have a fitted effect of over 65% in size
Details: P. falciparum Dd2 growth, SYBR Green, 72 h; series mostly up to 28.9 µM
Summary of the method: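 Infected erythrocytes (Dd2, 0.3% parasitemia, 2.5% hematocrit final) are added to compound in RPMI-1640/Albumax II medium, grown 72 h at 37C in low oxygen, then lysed with saponin/Triton-X containing SYBR Green and read by fluorescence.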
Potency means the concentration at half of the fitted maximal effect; tags describe the fitted curve by direction and shape.

Compound | Potency
CCOC(=O)c1cnc2c(OC)cccc2c1Nc1cccc(O)c1 | inconclusive: 17.8 µM [inhibitor, single point]
COc1ccccc1C(C(=O)O)N1CCC(OCc2cccnc2)CC1 (stereo not drawn) | inactive
CCOC(=O)c1c(C)[nH]c(C)c1S(=O)(=O)NCC(=O)N(C)c1ccc(C)c(C)c1 | inconclusive: 20 µM [inhibitor, partial curve, poor fit]
COCCN1C(=O)c2ccccc2C(C(=O)Nc2nc3ccccc3s2)C12CCCCC2 (stereo not drawn) | active: 2.51 µM
COc1cc(CN2CCc3nc(N4CCN(c5ccccc5F)CC4)ncc3C2)ccc1OC(C)C | inactive
O=C(Nc1ccc2nc(SCC(=O)N3CCCc4ccccc43)sc2c1)c1ccc(F)cc1 | inconclusive: 8.91 µM [inhibitor, partial curve, poor fit]
Cc1ccc(CN2CC[C@@H]3[C@H]2C(=O)NC[C@H](CCC(=O)N2CCN(c4ccccn4)CC2)N3C)cc1 | inconclusive: 5.62 µM [inhibitor, partial curve]
Cn1cnc(S(=O)(=O)N2CCCCCCNC(=O)[C@@H]3CCC[C@@H]32)c1 | inactive
OC[C@@H]1O[C@H](CNCc2cccc(Cl)c2)[C@H](N2CCN(c3ccccn3)CC2)[C@@H]1O | inconclusive: 3.16 µM [inhibitor, full curve]
O=C(c1ccc(C(F)(F)F)cc1)N1CCc2nc(-c3ccccc3)nc(-c3ccc(Cl)cc3)c2C1 | inconclusive: 12.6 µM [inhibitor, single point]
O=C(NC1CCCN(c2cc(-c3ccccc3)[nH]n2)C1)c1ccccc1 (stereo not drawn) | inconclusive: 0.398 µM [inhibitor, full curve, poor fit]
Cc1ccc(CN2CC3(Cc4ccccc4C(=O)N3)C2)cc1 | inconclusive: 10 µM [inhibitor, single point]
CCOC(=O)c1cc(OC(=O)c2ccc(OC)c(OC)c2)n(-c2ccccc2)n1 | inactive
N#Cc1cccc(NC(=O)N2C[C@@H]3C[C@H](C2)c2ccc(-c4ccc(OC(F)(F)F)cc4)c(=O)n2C3)c1 | inconclusive: 7.94 µM [inhibitor, partial curve, poor fit]
O=C(C1CCCC1)N1CC2(CCN(CC3CC3)C2)Cc2ccccc21 (stereo not drawn) | active: 8.91 µM
Cc1ccc(N2CC(C(=O)Nc3ccc(Cl)cc3Cl)CC2=O)cc1 (stereo not drawn) | inactive
Cc1cccc(Cn2c(SCc3ccc(C(=O)NC4CCCCC4)cc3)nc3cccnc32)c1 | active: 10 µM
CN1CCC(NC(=O)C2(C)CN(Cc3ccccc3)Cc3ccc(Nc4ccccc4)nc32)CC1 (stereo not drawn) | inconclusive: 1.78 µM [inhibitor, partial curve, poor fit]
